# The campaign covered roughly 420,000 compounds. About 64,000 (15%) were called active. The inconclusive results got no clear call from the source; some entries with a clear call stand among them for comparison. The call rests on the fitted dose curve; in most records, active means well fitted inhibition curve with a large enough effect; inconclusive means small, poorly fitted or top-dose-only effect; inactive means flat fitted curve, though single readings scatter. Potencies of inconclusive entries are left out as doubtful fits.
# Experiment: qHTS for Inhibitors of human tyrosyl-DNA phosphodiesterase 1 (TDP1): qHTS in cells in absence of CPT; further: nearly all actives have a fitted effect of over 55% in size
# Conditions: DT40 Tdp1-/- hTDP1 cells, no CPT, ATP luminescence, 48 h; activity change, negative = growth inhibition: at 46.2 µM (top of the series) unless noted
# In short: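 A cellular qHTS used chicken DT40 cells lacking endogenous Tdp1 but carrying stably transfected human TDP1. Compounds were applied without camptothecin, and cell growth kinetics were judged by ATP-dependent luminescence after ≥48 hr.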
# On the % scale 0 is the no-effect control and ±100 the full control effect; potency means the concentration at half of the fitted maximal effect; tags describe the fitted curve by direction and shape.
Compound,Potency,"activity change, negative = growth inhibition"
CC(=O)N1CCN(c2ccccc2NC(=O)c2cccc3c(Cl)cccc23)CC1,"inconclusive [inhibitor, single point]",–
COc1ccccc1CN(C)C(=O)c1cccc(S(=O)(=O)N2CCN(Cc3ccccc3)CC2)c1,"inconclusive [inhibitor, single point]",–
Cc1[nH]n(-c2ccc(Cl)cc2)c(=O)c1C=Nc1ccc(S(=O)(=O)N2CCOCC2)cc1,"inconclusive [inhibitor, single point]",–
Cc1ccc2c(c1)CO[C@@]21O[C@H](CCO)C[C@H](O)[C@H]1O,–,inactive: -7.81%
CC(C)c1ccc(NC(=O)CCCC(=O)NCCc2ccccc2)cc1,–,inconclusive: -30.9% [inhibitor]
CCC(C)Sc1cc(C)c(C#N)c2nc3ccccc3n12 (stereo not drawn),active: 16.4 µM,–
CCC1=Nc2cc(C(=O)NCCc3ccccc3)ccc2Sc2ccc(Cl)cc21,active: 6.51 µM,–
O=C(COC(=O)c1cc([N+](=O)[O-])ccc1N1CCOCC1)c1ccc(Br)cc1,"inconclusive [inhibitor, single point]",–
CCc1cc2c(cc3c(=O)n(CC(=O)NCc4cccc(Cl)c4)nc(CC)n32)s1,"inconclusive [inhibitor, single point]",–
CC1=C(C(=O)Nc2ccc(Cl)cc2)C(c2cccs2)n2nc(SCc3cccc(Cl)c3)nc2N1 (stereo not drawn),–,inactive: -21.4%
CC1(Cc2cc(Cl)ccc2C(F)(F)F)C(=O)Nc2ccc(S(=O)(=O)NC3CCCCC3)cc21 (stereo not drawn),"inconclusive [inhibitor, single point]",–
CC1(C)CC(=O)c2cc(C(=O)Nc3cccc4ccccc34)c(=O)[nH]c2C1,active: 15.8 µM,–
CCOc1ccc(CC(=O)Nc2c(C(=O)c3ccc(Cl)cc3)oc3ccccc23)cc1OCC,"inconclusive [inhibitor, partial curve]",–
Cc1nn(Cc2ccccc2)c2sc(C(=O)NCc3cccnc3)cc12,"inconclusive [inhibitor, single point]",–
CCN(C[C@H]1N[C@@](Cc2ccccc2)(C(=O)OC)[C@H]2C(=O)N(Cc3ccccc3)C(=O)[C@@H]12)C(=O)c1ccc(C)cc1,"inconclusive [inhibitor, single point]",–
Cc1cccc(S(=O)(=O)c2cn(Cc3ccccc3)c3cc(N4CCC(C)CC4)c(F)cc3c2=O)c1,active: 8.2 µM,–
CC(C)[C@@H](N)C(=O)NC[C@H]1O[C@@H](n2cnc3c(=O)[nH]c(N)nc32)[C@H](O)[C@@H]1O,–,inactive: -2.93%
N#C/C(=C/c1cccc(O)c1)C(=O)NCc1ccc(Cl)cc1,active: 16.4 µM,–

# — PubChem BioAssay AID686978 (National Center for Advancing Translational Sciences (NCATS), 2013)
